Test results from PubChem BioAssay (Tox21).
Where “and” joins values, the source holds several entries; their conditions need not be identical. Equal entries are not always repeated. Inconclusive results, whose numbers are uncertain, are shown with a selection of clear calls. Potencies beside an inconclusive call are fits to weak or partial responses and may not hold up. Calls of active or inactive are those of the source. Calls come from the whole dose curve; as a rule, active = well fitted cell-killing curve with a large enough effect in the repeat runs; inconclusive = weak or mixed curves, or effect the other way; inactive = no such curve, though single readings can be large or run the other way.

Assay: qHTS assay to identify aromatase inhibitors - cell viability counter screen (AID 743084);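 note: cells stimulated with testosterone during compound exposure; nearly all actives have a fitted effect of over 55% in size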
Details: MCF-7 aro ERE viability, CellTiter-Fluor, 24 h; series mostly up to 70.3 µM
Potency is the fitted concentration of half-maximal effect; tags give direction and shape of the fitted curve.

| SMILES | Potency |
| --- | --- |
| c1ccc(Nc2cccc3ccccc23)cc1 | inconclusive: 61.1 µM [cytotoxic, partial curve] |
| CCCN(CCC)C(=O)C(CCC(=O)OCCCN1CCN(CCOC(=O)Cc2c(C)n(C(=O)c3ccc(Cl)cc3)c3ccc(OC)cc23)CC1)NC(=O)c1ccccc1 (stereo unspecified) | inconclusive: 33.5 µM [cytotoxic, single point] |
| CC(CN1c2ccccc2Sc2ccccc21)N(C)C (stereo unspecified) | inconclusive: 69.3 µM [cytotoxic, single point] |
| COc1ccc(CN2CCN(C(c3ccc(F)cc3)c3ccc(F)cc3)CC2)c(OC)c1OC | inconclusive: 29.8 µM [cytotoxic, single point] |
| CCCCCCCCCCOCC(O)CN (stereo unspecified) | inconclusive: 33.5 µM [cytotoxic, single point] |
| O=Nc1ccc(Nc2ccccc2)cc1 | active: 27.4 µM and inconclusive: 68.6 µM [cytotoxic, single point] |
| O=C(c1ccc(O)cc1)c1ccc(O)cc1O | inconclusive: 61.8 µM [cytotoxic, single point] |
| O=C(Nc1ccc(Cl)cc1)Nc1ccc(Cl)c(Cl)c1 | inconclusive: 11.9 µM [cytotoxic, partial curve] |
| O=c1c(O)c(-c2ccc(O)cc2)oc2cc(O)cc(O)c12 | inconclusive: 68.3 µM [cytotoxic, single point] and inactive |
| O=C(NO)c1ccccc1 | inconclusive: 51.9 µM [cytotoxic, partial curve] |
| CC(C)c1cccc(C(C)C)c1N1C(=O)c2ccc(O)cc2C1=O | inconclusive: 68.6 µM [rising, partial curve, poor fit] |
| CCOC(=O)N1CCC(=C2c3ccc(Cl)cc3CCc3cccnc32)CC1 | inconclusive: 61.1 µM [cytotoxic, single point] |
| COc1ccc(N)c(C)c1 | inactive |
| CN(C)c1ccc(C(=C2C=CC(=[N+](C)C)C=C2)c2ccccc2)cc1 | inconclusive: 29.8 µM [cytotoxic, partial curve, poor fit] and active: 1.93 µM |
| CCCCC(CC)COC(=O)CC(C(=O)OCC(CC)CCCC)S(=O)(=O)O (stereo unspecified) | inconclusive: 29.5 µM [cytotoxic, partial curve, poor fit] |
| Cc1ccc(O)c2ncccc12 | inconclusive: 13.3 µM [cytotoxic] |
